Data on two molecules can be found in patent US10668093B2, “Method for prolonging the over survival of a cancer patient” (National Yang-Ming University, priority 2015, dated 2020).

One assay has as its system CTV-1. As to the kind of experiment: Cell cycle distribution by BrdU assay. As to conditions: cell percentages; CTV-1, 12-hour treatment at IC50, BrdU assay. A general note: Uptake of a labelled nucleoside into DNA is a usual measure of proliferation.
In a further assay the test system is CHK-1 and p-CHK-1. Kind of assay: Western blots of CHK-1 and p-CHK-1 in CTV-1 cells. The note with it: CTV-1, at IC50 for 0, 8, 12, 16 hours. The class given is cell-based. On the technique in general: A western blot detects proteins with antibodies after separation by electrophoresis.

As to `COc1cccc2c1C(=O)c1c(O)c3c(c(O)c1C2=O)C[C@@](O)(C(=O)CO)C[C@@H]3O[C@H]1C[C@H](N)[C@H](O)[C@H](C)O1` [Doxo, Doxorubicin], in the assay on CTV-1, the G0G1 was 19.4 ± 2.4, the G2M amounted to 28.2 ± 3.5, the S is given as 49.0 ± 4.2 and the SubG0 turned out to be 0.1 ± 0.04. In addition, the “expression of CHK-1 and p-CHK-1” value in the assay with CHK-1 and p-CHK-1 is recorded as “increased with time”.
In the assay with CTV-1, `O=C(CCCCCCC(=O)Nc1ccccc1)NO` [SAHA, Suberoylanilide hydroxamic acid] came in with a G0G1 of 4.13 ± 1.0, a G2M of 11.5 ± 1.2, an S of 78.3 ± 6.8 and a SubG0 of 2.0 ± 0.5. In addition, the “expression of CHK-1 and p-CHK-1” value in the assay with CHK-1 and p-CHK-1 is “decreased”.
